# In ChEMBL document CHEMBL1157539, “Thousands of chemical starting points for antimalarial lead identification” (Nature, 2010):
# The full ranking holds about 13,000 compounds; the median of “IFI” is about 4, and the highest 2% start at about 17. The list shows a part of the results.
# Test: GSK_TCMDC: Inhibition Frequency Index (IFI). The number of non-kinase HTS assays where a compound showed > 50 % inhibition, expressed as a percentage of the number of such assays in which the compound was tested (-0 is zero)
# Type: functional
row,Structure (SMILES),IFI [%]
1,COc1ccccc1CCNc1nc(C)cc(NCCC(=O)NCCOc2ccccc2)n1,10.5
2,O=C(Nc1cccc(C2=NCCCN2)c1)Nc1cccc(C2=NCCCN2)c1,0.74
3,COc1cc(NCC(O)CNc2cc(OC)c3ccccc3n2)nc2ccccc12,8.51
4,O=C(Nc1ccccc1Oc1ccccc1)NC1CCN(c2ccnc3cc(Cl)ccc23)C1 (configuration not stated),4.62
5,COc1ccc(CCC(C)(C)NCC(O)c2cccc(C(F)(F)F)c2)cc1 (configuration not stated),5.63
6,Cc1cccc(CN2CCCN(Cc3ccc(C(=O)Nc4ccc(C)c(F)c4)cc3)CC2)c1,7.09
7,Cc1cccc2nc(-c3ccc(-c4cccc(CNCCc5ccncc5)c4)s3)[nH]c12,5
8,CC(C)NCc1ccc(-c2ccc(NC(=O)c3cccc(Cl)c3)cc2)cc1,13
9,Clc1ccc2c(NN=Cc3cccs3)ccnc2c1,-0
10,O=C(NCC1CCN(Cc2cccc(C(F)(F)F)c2)C1)c1cc(-c2cccc(F)c2)cs1 (configuration not stated),3.77
11,NCc1ccc(-c2ccccc2CNC2CCN(Cc3ccccc3)CC2)cc1,6.62
12,Cc1cc(N)nc2ccc(-c3ccc(CN)cc3)cc12,4.83
13,COc1ccc(NC(=O)/C=C/c2ccccc2Cl)cc1OCCN1CCC(N(C)C)CC1,0.7
14,COc1ccc(-n2ccnc2)cc1CNC1CCN(CC2Cn3c(=O)ccc4ccc(F)c2c43)CC1 (configuration not stated),1.85
15,COc1cc2ccccc2cc1CCNCCCCNCCc1cc2ccccc2cc1OC,14.8
16,CCOC(=O)CNC(=O)c1cc(=O)c2ccccc2o1,1.47
17,COc1cc2c(cc1NC(=O)CN1CCN(C(=O)c3ccco3)CC1)oc1ccccc12,3.42
18,Cc1cccc(-c2nc3[nH]c(=O)cc(NC(=O)C(C)C)n3n2)c1,0
19,CC(C)NCc1ccc(-c2ccc(CN3CCCC(c4ccccc4)C3)cc2)c(C(=O)NCC2CCCCC2)c1 (configuration not stated),7.09
20,CCOc1ccc(CCCON2C(=N)N=C(N)NC2(C)C)cc1,3.52
21,Cc1ccc(CON2C(N)=NC(N)=NC2(C)C)c(Cl)c1.Cc1ccc(CON2C(N)=NC(N)=NC2(C)C)cc1Cl,2.88
22,Cc1nc(C)c(C2CCC(c3ccc(Cl)cc3)CC2)c(O)c1Cl (configuration not stated),7.97
23,Cc1cc(Nc2ccccc2)nc(NCCOc2ccccc2)n1,3.68

row,Structure (SMILES),IFI [%]
1,COc1ccc(NC(=O)[C@H](Cc2ccccc2)Nc2cc(C)nc(NCCOc3ccccc3)n2)cc1,4.65
2,CCCC1(NC[C@@H](O)[C@H](Cc2ccccc2)NC(=O)c2cc(NCC)cc(N3CCCCS3(=O)=O)c2)CCCC1,1.45
3,COc1ccc(NC(=O)Nc2ccc(C)c(-c3ccc(C(=O)NCCN4CCCC4)cc3)c2)cc1,0
4,CN1CCN(CCNc2c3ccccc3nc3ccc4ccccc4c23)CC1,8.45
5,COC(=O)c1cccc(CNCc2ccc(-c3cccc(-c4nc5ccccc5[nH]4)c3)cc2)c1,2.91
6,CC(C)N1CCC(NC(=O)N2CCCN(c3ncnc4cc(-c5ccc(Cl)cc5)sc34)CC2)CC1,5.66
7,COc1ccc(NS(=O)(=O)c2ccc(C(=O)Nc3ccc(C(F)(F)F)cc3)cc2)cc1N1CCN(CC2CC2)CC1,2.1
8,CC(C)C[C@H](NC(=O)OC(C)(C)C)C(=O)Nc1ccc(Cc2ccc(NC(=O)[C@H](CC(C)C)NC(=O)OC(C)(C)C)cc2)cc1,0.76
9,O=c1cc(NCCCNCc2ccc(Cl)c(Cl)c2)[nH]c2cc(F)cc(F)c12,3.94
10,Oc1ccc2nc(Nc3ccccc3)nc(NCCc3ccccc3)c2c1,10.7
11,NC1=NC(c2ccccc2)(c2ccccn2)C(=O)N1CCCc1ccccc1 (configuration not stated),3.33
12,COc1cccc(CCc2cccc(CNC(C)=O)c2)c1,-0
13,O=C(Nc1ccc(Cl)cc1)c1cccc2nc(C(F)(F)F)[nH]c12,21.3
14,COc1ccc(Cl)cc1N1CCN(CCCNC(=O)c2ccc(-c3nc4cnccc4[nH]3)c(Br)c2)CC1,1.44
15,COC(=O)Nc1cc(C(F)(F)F)ccc1N1CCCC(NS(=O)(=O)c2ccc(C(C)(C)C)cc2)C1 (configuration not stated),1.54
16,O=C(Nc1ccccc1F)N(CCCn1ccnc1)Cc1csc(-c2ccc(CNCc3ccccc3)cc2)n1,5.41
17,Cc1ccccc1C1CCN(C2CCC(NC(=O)/C=C/c3ccccc3C(F)(F)F)CC2)CC1 (configuration not stated),14.8
18,Oc1ccc(CCNc2nc(NCc3ccc4cc(Cl)ccc4c3)nc(N3CCNCC3)n2)cc1,17.2
19,O=c1cc(NCCCNCc2ccc3c(c2)OC(F)(F)O3)[nH]c2ccccc12,1.45
20,COc1ccc(S(=O)(=O)Nc2cc(C)cc(Br)c2OC)cc1N1CCN(C(=O)C(Cl)(Cl)Cl)CC1,3.15
21,CCC(CC)NCc1c(O)ccc2c(CNC(CC)CC)c(O)ccc12,3.62
22,CC(C)(C)c1ccc(C(=O)Nc2cccc(Nc3c(C(=O)NCc4cccc(C(F)(F)F)c4)cnc4c(O)cccc34)c2)cc1,3.68
23,O=C(Nc1ccc([N+](=O)[O-])cc1Cl)c1cc2ccccc2cc1O,12.8

row,Structure (SMILES),IFI [%]
1,O=C(/C=C/c1ccc(C(F)(F)F)cc1)NCCCCCN1CCN(C(=O)Nc2ccc(F)c(Cl)c2)CC1,7.92
2,COc1ccccc1CCNc1nc(C)cc(N[C@@H](CC(C)C)C(=O)NCCc2ccccc2)n1,12.5
3,N#Cc1cccc(C(=O)Nc2ccc(-c3ccc(CN4CCCC4)cc3)cc2)c1,5.15
4,C[C@H]1CN(Cc2cccc(-c3cc(CNC(=O)c4cccc(CN5CCN(CCOc6ccccc6)CC5)c4)ccc3F)c2)CCN1,9.09
5,CC1(C)Cc2c(oc3ncn(CCn4cnc5oc6c(c5c4=N)CC(C)(C)SC6)c(=N)c23)CS1,1.44
6,COc1ccc2nccc([C@@H](O)CN3CCC(NC(=O)c4cc5c(F)cc(F)cc5[nH]4)CC3)c2c1,3.55
7,CCCCc1cc(NCC)nc(Nc2cccc(OC)c2)n1,7.04
8,Cc1ccc(Cn2ncc(N3CCCNCC3)c(Cl)c2=O)cc1NC(=O)Nc1ccc(-c2ccccc2)cc1,10.7
9,N#Cc1ccc(CN2CCC(Oc3ccc(NC(=O)c4ccsc4)cc3Cl)C2)cc1 (configuration not stated),11.9
10,Cc1cccc2nc(-c3cccc(-c4ccc(C(=O)NCc5ccccc5S(C)(=O)=O)cc4)c3)[nH]c12,0.95
11,N#Cc1cncc(-c2nc3c(N4CCC(Cc5ccccc5)CC4)cccc3n2CCNCc2ccccc2)c1,4.17
12,COc1cc([N+](=O)[O-])ccc1NC(=O)Nc1ccc(OC(F)(F)F)cc1,18.4
13,O=C(Nc1cccc(-c2ccc(CN3CCCC3)cc2)c1)c1cccc(F)c1,0
14,CCCCC(CCCC)CN1C(=O)C(c2ccccc2)(c2ccccc2)N=C1N,20.9
15,NC1CCN(CCNCc2cccc(-c3ccc(-c4nc5cc(F)ccc5[nH]4)cc3)c2)C1 (configuration not stated),1.41
16,FC(F)(F)c1ccc2[nH]c(-c3ccc(-c4ccc(CN5CCN(c6cnccn6)CC5)cc4)s3)nc2c1,8.82
17,COCCN(C(=O)Cc1cccs1)C(C(=O)NCc1ccc(OC)cc1)c1ccc(C(C)C)cc1 (configuration not stated),1.4
18,FC(F)(F)c1ccc2[nH]c(-c3ccc(-c4cccc(CNCCc5cccnc5)c4)s3)nc2c1,8.24
19,CC(C)NCc1cccc(-c2cccc(NC(=O)c3cccc(Cl)c3)c2)c1,3.85
20,c1ccc(CN2CCN(CCCCNc3c4ccccc4nc4ccccc34)CC2)cc1,3.1
21,O=C(/C=C/c1cccc(Cl)c1)NCCCCCN1CCC(c2c[nH]c3ccccc23)CC1,6.76
22,COc1ccc(-c2csc3ncnc(Cl)c23)cc1,2.1
23,CCN(CC)CCN(Cc1ccc(-c2ccc(C(F)(F)F)cc2)cc1)C(=O)Cn1c(CCc2cc(F)cc(F)c2)nc(=O)c2ccccc21,8.33

row,Structure (SMILES),IFI [%]
1,COCCCNc1sc(S(=O)(=O)c2ccccc2)nc1S(=O)(=O)c1ccc(Cl)cc1,0
2,COc1ccc(C(C)Nc2nc(N)c3cc(OC)c(OC)cc3n2)cc1 (configuration not stated),1.56
3,CCCCCCOc1ccccc1C(=O)NCCOc1ccc(Cl)cc1,3.73
4,Nc1nc(N)c2c(ccc3c2ccn3Cc2ccc(OCc3ccccc3)cc2)n1,0.76
5,CCOC(=O)c1cc(=O)c2ccc(OCC#N)cc2o1,1.49
6,COc1ccc2nccc([C@@H](O)CN3CCC(NC(=O)C(=Cc4ccc(C#N)cc4)c4ccc(-c5ccccc5)cc4)CC3)c2c1,0
7,O=C(C=Cc1ccc(Cl)c(Cl)c1)NCCCCCN1CCC(CCCNC(=O)c2sc3ccccc3c2Cl)CC1,11.4
8,O=C(CNc1ccncc1)c1c[nH]c2ccccc12,1.6
9,CCOc1ccc2[nH]c(C)cc(=NN=Cc3ccccc3Cl)c2c1,3.68
10,CC(C)CNCc1cccc(-c2ccc(CNc3ccc(C(=O)c4ccccc4)cc3)cc2)c1,3.57
11,O=c1nc(C=Cc2ccc(Br)cc2)oc2ccccc12,7.62
12,Cc1cc(Nc2cccc(C(F)(F)F)c2)nc2ccc(NC(=O)c3ccc(=O)[nH]c3)cc12,2.6
13,Cn1ccnc1Sc1ncccc1[N+](=O)[O-],0
14,Nc1c(Cl)cc(C(O)CNCCCCCOCCc2ccc3occc3c2)cc1Cl (configuration not stated),2.54
15,CC(C)[C@H](NC(=O)c1ccc(O)c(-c2ccc(Cl)c(Cl)c2)c1)C(=O)NCCN1CCCCC1,2.96
16,CCN1CCC(N(Cc2ccc(-c3ccc(C(F)(F)F)cc3)cc2)C(=O)CCCCn2c(CCc3cccc(F)c3F)nc(=O)c3ccccc32)CC1,12
17,O=C(NCC1CCN(Cc2ccsc2)C1)c1cc(-c2cccc(C(F)(F)F)c2)cs1 (configuration not stated),9.43
18,COc1cc(NC(=O)/C=C/c2ccccc2OC(F)(F)F)cc(OCCN2CCC(O)(c3ccccc3)CC2)c1,6.57
19,CN(CC1CCC(NC(=O)/C=C/c2ccc(Cl)c(Cl)c2)CC1)C1CCC(c2c[nH]c3ccccc23)CC1 (configuration not stated),6.21
20,COc1ccc2cc(C(c3nnnn3CC3CCCO3)N3CCc4ccccc43)c(=O)[nH]c2c1 (configuration not stated),2.48
21,CCc1nc(N)nc(N)c1-c1ccccc1,0.75
22,CC(C)Oc1cc2c(cc1NS(=O)(=O)c1ccc(-c3cccs3)cc1)CCN(C)CC2,4.26
23,COCCOc1nc(N)nc2ncc(Cc3cc(OC)ccc3OC)c(C)c12,2.9
